Experimental data: the supplement of paper PMC11417369
The other results are listed elsewhere or left out.

System: PfHDP1 homeodomain (GST-tagged)
Assay: gcPBM binding intensity (ln(normalized median fluorescence intensity)); higher = stronger DNA binding
Method in brief: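 In this array assay, P. falciparum DNA-binding domains with a GST tag, expressed in E. coli, were applied for 1 h to primer-extended double-stranded 36-bp intergenic genomic probes and negative controls on an Agilent 4 × 180k array. Bound protein was visualised with Alexa488 anti-GST antibody at 488 nm. Binding intensity is the highest Masliner-normalised natural-log median intensity across replicate spots of either probe orientation.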

Sequence	gcPBM binding intensity (ln)
TAAATCTATATCATCACACACACATACATAAATATA [CACACA_site6228]	6.85
AATATATGGTTCCTTGATATTAAATTCAATTTAATG [CACACA_negctrl_site71]	6.25
TGTGTATATGTGCAAAGTACAAAAAAGAAATTATTT [XGTACX_site7569]	9.87
AAAATATATATAACTTGTACATATACATACGTATAT [XGTACX_site4570]	6.36
TGTATATATCAATGTACACACATGCGTATGTTCGTT [CACACA_site7654]	6.61
TATAAAAAAAATTGCACACATATTATACAGGACGAC [CACACA_site701]	10
TATAAAATATAATTAGCACACATATATAAAATATAT [CACACA_site9355]	6.83
AATATATGTAATATATGTACTTAATTATATTTTAAT [XGTACX_site4382]	6.11
TACTAATATGATATATAAATATTGTTATATAATAAT [XGTACX_negctrl_site227]	6.17
AAAATAAAAGAAAAAAGTACAAAATCAGATTAATTA [XGTACX_site8413]	6.27
TGAATACAAATTTACGCATGTAATTTCCAGAGGGAG [TGCATGCA_site769]	6.42
GAATAATATGGACATACACACATATACATACATATA [CACACA_site2114]	6.65
TTATTTCATTCTTGAAGTACGTGAAAAATGAAAACA [XGTACX_site4089]	6.55
ACATATGAATATAATACACACTTGTATTATTAATAT [CACACA_site8546]	6.52
TTACCTTTATTGTATGAACACACATAAGCTGATACA [CACACA_site9334]	6.7
TATATATATACATATTGTACATGTGTATATTTTTTT [XGTACX_site361]	7.63
TTAGTTATTAAAAAAAGTACATAAGTAGATATCATC [XGTACX_site8712]	6.18
CCATTTTTTTTATACGCACACGTCATACTTTTAAAA [CACACA_site4988]	8.04
AAAATTTAATATAATGCACACATAAAAAAAAAAAAA [CACACA_site7923]	10.4
CGTAATAAAAACAAATGTACATGACCTGGACAGGTT [XGTACX_site6560]	6.4
ATATAAAACTATAATACACACATAAAATATATTATA [CACACA_site6588]	6.74
GTATATTTTTAAAGGTGTACTTTTTTTTTTTTTTTT [XGTACX_site721]	6.8
ATAAATATATATATAGTGCATATAAGCCACCTTCAA [GTGCAC_site9628]	8.73

Sequence	gcPBM binding intensity (ln)
TATATAATACAACATGCACACATATATATGTGAATC [CACACA_site8794]	9.26
TATATTTATTTATTCTGTACTGAAGACAGTTATGTA [XGTACX_site8857]	6.45
ATTTAAAAAAAAAAAAAAAAAAAAAAAAAAAGAAAA [CACACA_negctrl_site722]	5.67
TAATCCTTTCAATATTGTACACATTTGTGTTAAGAA [XGTACX_site1275]	6.79
TATATTATGACCACCACACACCTATACACATAACAT [CACACA_site7199]	7.01
TTTAATATTAGCATATGTACACAAATCACACGGAAA [XGTACX_site2473]	7.34
ATATATTTTATATAATGTACATAAACCGCACACATA [XGTACX_site6061]	6.71
TTTCAAATTTAATACACACACAAGTATATATCTATC [CACACA_site7782]	6.54
ATTTATATATAATATACACACATATAATACCCATAT [CACACA_site4548]	6.73
AACGCACGAGGACACACACACATATTTATATTTATA [CACACA_site6608]	7.08
TTTTTTAACTGTATGATGTTATATTAAAAATAAAAA [GTGCAC_negctrl_site463]	6.21
TCAAATATATAGAATACACACATGGATATAAGAAAT [CACACA_site4065]	6.93
GGACAAGAATAGTGCACATGCAATGTTATTTTTTAT [TGCATGCA_site450]	9.96
CGTTTTAATAAGATCACACATATAATATATATATAT [CACACA_site5159]	8.57
ATTATAACCATATACACACCCATATAAATAAATATA [CACACA_site6926]	6.85
ATATTAAATGTTATCACACACATAATTACTTCCATA [CACACA_site7160]	6.7
TATTAAATGGCCATTACATGCAATTATTTCTAATAA [TGCATGCA_site275]	6.33
ATAATATAAATACAAACACACAATTGCGTCCACATT [CACACA_site5039]	6.59
TCATACGAAATATAAACACACATACAATAAATAAAT [CACACA_site5156]	6.72
ATTTAATTTGTTCTTACACACACATATATATATATT [CACACA_site8310]	7.48
AACAAATTGAAACAATAATTGGAAAAAAAAAAAAAA [CACACA_negctrl_site1145]	6.04
AACAAATACGGACACACACACACACTAGAAAAAAAA [CACACA_site4442]	6.7
ATAAAATAAAAGGAATGTACTTTTTTTATTGTAATT [XGTACX_site4372]	6.09

Sequence	gcPBM binding intensity (ln)
TAAAAAAAAACAGAAACACACATTATTCATATAGAT [CACACA_site7052]	6.37
GTTATAAATTTTTTTTTTTTTTTTTTTTTTTTTTTT [CACACA_negctrl_site848]	7.2
AAAAGCACCGTTCGTTGTACACTGAAACACTTTTGT [XGTACX_site199]	6.52
AAGAAAAAAACAAAAAAAAAAAAAAAAATTCTTATT [TGCATGCA_negctrl_site504]	5.73
CTATAATATTAGTGCACACACAAAAATGTACTAAAC [CACACA_site6442]	10.6
ATTTTTTTCCACTAGTGTACAAATTTTACATTGTGT [XGTACX_site5023]	7.57
ACTAATGTAAAAGTTTGTACATATATTGAGAATTAT [XGTACX_site7439]	6.4
TTTTCAATTTTTTATGAACACACAAAAAAAAAAAAA [CACACA_site8808]	6.49
TATTGATAATTTTATATATACATACATAAATAAATA [CACACA_negctrl_site1687]	5.98
TCGCAAATAAATTAATGTACACATATATATATATAT [XGTACX_site5145]	9.33
ATAAACTGAGTGGTTACACACAAAACCAATAATTTT [CACACA_site3478]	6.14
AAATGTATATATGTATGTACATATATATATATATAT [XGTACX_site5778]	9.27
AGTTTCTATTTAGTGTGTACTTAAGAAAAATATCTC [XGTACX_site82]	6.3
ATATATATATATATATGTACTCATATTTTATTATTT [XGTACX_site898]	9.25
ACATAGATGCATATCACACATAATAATATTGTCGTA [CACACA_site4819]	6.56
TTATAAAATAAACTTACACACATGAAATATTATATT [CACACA_site1945]	6.25
TAAAGCGACATTTGGAAAATATATATCCTAGCATTT [CACACA_negctrl_site327]	6.08
AAAATACACAGACACACACACATATAAATAAATATT [CACACA_site7871]	6.98
ATTCGTTATAAAATATGTACATAAATATATATATAT [XGTACX_site2819]	8.55
TATTCGTGCAATAGTAGTACACTTAAAAATTATTCA [XGTACX_site269]	9.88
AATAAGTTATTATTTTGTACACATAAATAATACGTT [XGTACX_site814]	6.2
GCACTAAAAAAATAAACACACAGATTTATATAATAT [CACACA_site1381]	6.5
ATATATGCATATATTTGTACACATTTTTTTACATAA [XGTACX_site4624]	7.32

Sequence	gcPBM binding intensity (ln)
AAAAAAACGTAAAAATGTACTTTTTGTATATAACCT [XGTACX_site7950]	6.74
AAGGAACTATAATATACACACATAAGTGTACTTATA [CACACA_site7816]	6.21
AGGAAAATTATGAATGGTACAGAATATATTAGGAGA [XGTACX_site6282]	7.46
TATTTGTGGATTTTTACACACATTAATATATATATA [CACACA_site3375]	8.14
AAACAAAATAAATATGAACACACACCGTTATGCCTT [CACACA_site8347]	6.36
AAGACAAATTTTACATGTACAAATATATTACATATA [XGTACX_site7060]	6.83
AAGAAAAAAAGCAACACACGTACCAACACAATTATG [CACACA_site3133]	6.88
TATTCAAATTTCCACATACACACCTTGTAGATATAT [CACACA_site281]	6.72
ATTTCTTTTGTTATAGTGCATAATATTTATGTACGT	8.44
AAAGAAAGAAAGAAAAGTACTTAAACTTTTAAAAAT [XGTACX_site8531]	6.03
AATAATAATAAAAATAAACACACATATATATGTATA [CACACA_site8928]	6.38
TTAAATAAATAAATAACACACATATAAAAATAACGC [CACACA_site3266]	7
TAACTATCATGTATTACACACAATATTTATTATATA [CACACA_site2701]	6.76
ATATTAATATATAGAAGTACTCACATGTTAATATAA [XGTACX_site7323]	6.83
TAATATTTCGCACTGTGTACTGAAATATTTATATCG [XGTACX_site516]	6.96
GTAGACTGAAACCACACACACATATATATATATATT [CACACA_site605]	6.93
ATAATAAGACGATAAGGTACACAAAATGTTAATATA [XGTACX_site6984]	6.66
ATTTATATGGTTTGCACACATAACAACTATGGTTAT [CACACA_site3632]	10.2
TTTACACGTACGTGTACACACAAAAATATGTTTTTA [CACACA_site995]	6.8
GAAAGAAATAAAGGTGGTACATAAATAAAAACTAAG [XGTACX_site4826]	6.97
